Experimental data reported in PubChem BioAssay (Tox21).
Several values for one entry are separate records, joined by “and”; a condition that tells them apart may be missing. Identical values can stand only once. The shares of active, inactive and inconclusive entries below differ from those in the screen. For some assays here: Potencies beside an inconclusive call are fits to weak or partial responses and may not hold up. More than one record can exist for a structure, and the calls need not agree. Activity calls are given as the source filed them. Unless noted, calls come from the whole dose curve; as a rule, active = well fitted curve in the direction sought with a large enough effect in the repeat runs; inconclusive = weak or mixed curves; inactive = no such curve, though single readings can be large; an effect the other way counts as inactive or inconclusive.

Key:
[1] = qHTS assay for small molecule agonists of the p53 signaling pathway (AID 651631; calls by dose curve; note: nearly all actives have a fitted effect of over 15% in size; note: potency is the fitted concentration of half-maximal effect; for activation: % is set by controls: 0 for no effect and ±100 for the full control effect); conditions: HCT-116 p53RE-bla reporter, beta-lactamase FRET ratio, 16 h; activation: at 73.3 µM (top of the series) unless noted
How it was run: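 Beta-lactamase reporter activity under p53 response elements was quantified in HCT-116 cells by FRET fluorescence, following 16 h incubation with test compounds at 37 °C and 2 h substrate development at room temperature.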

[2] = qHTS assay to identify small molecule antagonists of the thyroid receptor (TR) signaling pathway - cell viability counter screen (AID 743064); conditions: GH3.TRE-Luc viability, CellTiter-Fluor, 24 h; activity change, negative = cytotoxic: at 70.3 µM (top of the series) unless noted; note: potency is the fitted concentration of half-maximal effect; nearly all actives have a fitted effect of over 50% in size
How it was run: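 CellTiter-Fluor readout, 30 min at 37 °C/5% CO2, following 23.5 h incubation of GH3.TRE-Luc cells with test compound and 1 nM T3 (final).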

[3] = molecular target: Estrogen receptor (Homo sapiens) (UniProt P03372); test: qHTS assay to identify small molecule agonists of the estrogen receptor alpha (ER-alpha) signaling pathway using the BG1 cell line (AID 743079); conditions: BG1Luc4E2 cells, ERE-luciferase agonist, 22 h; activation: at 70.3 µM (top of the series) unless noted; note: % is set by controls: 0 for no effect and ±100 for the full control effect; nearly all actives have a fitted effect of over 20% in size
[4] = molecular target: Peroxisome proliferator-activated receptor gamma (Homo sapiens) (UniProt P37231); test: qHTS assay to identify small molecule antagonists of the peroxisome proliferator-activated receptor gamma (PPARg) signaling pathway (AID 743191; calls by dose curve; note: % is set by controls: 0 for no effect and ±100 for the full control effect; nearly all actives have a fitted effect of over 30% in size); conditions: HEK293H PPARg-UAS-bla, beta-lactamase ratio, antagonist, 17 h; ratio activity, negative = inhibition: at 62.6 µM (top of the series) unless noted
How it was run: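 Beta-lactamase reporter under UAS control in HEK293H PPARg-bla cells; compound treatment 17 h at 37C. Read-out: fluorescence intensity after 1 h room-temperature incubation with LiveBLAzer B/G FRET substrate.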

[5] = qHTS assay for small molecule agonists of the antioxidant response element (ARE) signaling pathway (AID 743202; active = well fitted activation curve with a large enough effect in the signal ratio in the repeat runs, not every such curve was filed as active; inconclusive = weak or mixed curves, or effect the other way; inactive = no such curve, though single readings can be large or run the other way; the % refers to the signal ratio; note: % is set by controls: 0 for no effect and ±100 for the full control effect); conditions: HepG2 ARE-bla reporter, beta-lactamase FRET, 16 h; activation: at 73.3 µM (top of the series) unless noted
How it was run: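 An ARE-responsive beta-lactamase gene stably integrated in HepG2 cells serves as reporter. After 5 h plating and 16 h compound incubation at 37 C, fluorescence of the B/G FRET substrate was measured.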

[6] = qHTS assay to identify small molecule antagonists of the retinoic acid receptor (RAR) signaling pathway (AID 1159552; note: nearly all actives have a fitted effect of over 50% in size; note: potency is the fitted concentration of half-maximal effect; for activity, negative = inhibition: % is set by controls: 0 for no effect and ±100 for the full control effect)
How it was run: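 Test chemicals and DMSO controls were pin-transferred onto C3RL4 cells a day after seeding; retinol (1 uM final) followed at once. Luminescent reporter output was quantified after 6 hr of co-incubation and 30 min with detection reagent.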

[7] = qHTS assay to identify small molecule agonists of the retinoic acid receptor (RAR) signaling pathway (AID 1159553); conditions: C3RL4 RARE luciferase reporter, agonist, 6 h; activation: at 73.3 µM (top of the series) unless noted; note: potency is the fitted concentration of half-maximal effect
How it was run: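 Cell line C3RL4, RARE luciferase reporter. Treatment: compounds in DMSO, 6 hr, 37 C, 5% CO2, after overnight plating. Detection: luminescence, 30 min RT after reagent.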

[8] = qHTS assay for small molecule disruptors of the mitochondrial membrane potential (AID 720635); conditions: HepG2 mitochondrial membrane potential, Mito-MPS dye ratio; ratio activity, negative = MMP loss: at 83.2 µM (top of the series) unless noted; note: potency is the fitted concentration of half-maximal effect
How it was run: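 Mitochondrial membrane potential tracked with Mito-MPS dye, red aggregates (ex 540/em 590 nm) against green monomers (ex 490/em 535 nm). Compound treatment 1 hr at 37C, dye 30 min in HepG2.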

[9] = qHTS assay for identifying genotoxic compounds that show differential cytotoxicity against isogenic chicken DT40 cell lines with known DNA damage response pathways - wild type cell line (AID 743012); conditions: DT40 wild type chicken cells viability, CellTiter-Glo, 40 h; activity change, negative = cytotoxicity: at 68.4 µM (top of the series) unless noted; note: nearly all actives have a fitted effect of over 60% in size; note: potency is the fitted concentration of half-maximal effect
How it was run: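 Quantitative HTS on parental DT40 cells: 40 h compound treatment at 37 C/5% CO2, with viability then determined by CellTiter-Glo luminescence. Values serve as the DNA repair-proficient reference for differential cytotoxicity.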

[10] = molecular target: Progesterone receptor (Homo sapiens) (UniProt P06401); test: qHTS assay to identify small molecule antagonists of the progesterone receptor (PR) signaling pathway (AID 1346795; active = well fitted inhibition curve with a large enough effect in the signal ratio in the repeat runs, not every such curve was filed as active; inconclusive = weak or mixed curves; the % refers to the signal ratio; note: % is set by controls: 0 for no effect and ±100 for the full control effect); conditions: PR-UAS-bla HEK293T, beta-lactamase FRET ratio, 16 h
How it was run: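 Stimulus R5020 at 1 nM final; cells HEK293T PR-UAS-bla; medium with 2% charcoal-stripped FBS; compound exposure 16 hr at 37C, 5% CO2; detection by FRET beta-lactamase substrate, 2 hr, room temperature.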

[11] = molecular target: Cytochrome P450 2C19 (Homo sapiens) (UniProt P33261); test: Cytochrome P450 Family 2 Subfamily C Member 19 (CYP2C19) small molecule antagonists: luciferase reporter qHTS assay (AID 1671197); note: nearly all actives have a fitted effect of over 65% in size; note: potency is the fitted concentration of half-maximal effect
How it was run: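 CYP2C19 P450-Glo, 1536-well qHTS. Cpd + enzyme/proluciferin substrate 10 min RT; + NADPH regen, 37C 1 h; stop with luciferin detection reagent, 20 min RT, luminescence (RLU). Pos ctrl ketoconazole.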

[12] = molecular target: Cytochrome P450 2C9 (Homo sapiens) (UniProt P11712); test: Cytochrome P450 Family 2 Subfamily C Member 9 (CYP2C9) small molecule antagonists: luciferase reporter qHTS assay (AID 1671198); note: potency is the fitted concentration of half-maximal effect; nearly all actives have a fitted effect of over 50% in size
How it was run: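 Enzyme-substrate mix preincubated with compound 10 min at room temperature; reaction started with NADPH regeneration solution, 1 h 37C. Luminescent luciferin product read after 20 min detection reagent.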

[13] = qHTS assay to identify small molecule antagonists of the sonic hedgehog signaling (Shh) pathway (AID 1259369; calls by dose curve; note: potency is the fitted concentration of half-maximal effect; nearly all actives have a fitted effect of over 45% in size)
How it was run: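 Screening used 3T3Gli1-Luc cells at 2,000 per well, compounds delivered in DMSO, and conditioned medium as agonist stimulus; plates incubated 24hr at 37 C and 5% CO2 before a 30min luciferase step.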

[14] = molecular target: Cytochrome P450 1A2 (Homo sapiens) (UniProt P05177); test: Cytochrome P450 Family 1 Subfamily A Member 2 (CYP1A2) small molecule antagonists: luciferase reporter qHTS assay (AID 1671199); note: potency is the fitted concentration of half-maximal effect; nearly all actives have a fitted effect of over 50% in size
How it was run: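 Signal from luciferin formed by CYP1A2 from a proluciferin substrate is read as luminescence, expressed in relative luminescence units. Compounds sit with enzyme 10 min, NADPH-driven reaction runs 1 h, all at room temperature.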

[15] = molecular target: Vitamin D3 receptor (Homo sapiens) (UniProt P11473); test: qHTS assay to identify small molecule antagonists of the vitamin D receptor (VDR) signaling pathway (AID 743223; active = well fitted inhibition curve with a large enough effect in the signal ratio in the repeat runs, not every such curve was filed as active; inconclusive = weak or mixed curves, or effect the other way; inactive = no such curve, though single readings can be large or run the other way; the % refers to the signal ratio; note: potency is the fitted concentration of half-maximal effect); conditions: VDR-UAS-bla HEK293T, beta-lactamase FRET ratio, 16 h
How it was run: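 Inhibition of agonist-driven VDR signalling is scored in VDR-bla cells: 3 nM final 1alpha,25-dihydroxyvitamin D3 plus compound, 16 h at 37C, then beta-lactamase detection by FRET substrate fluorescence after 2 h.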

[16] = molecular target: Estrogen receptor beta (Homo sapiens) (UniProt Q92731); test: qHTS assay to identify small molecule antagonists of the estrogen receptor beta (ER-beta) signaling pathway (AID 1259378; active = well fitted inhibition curve with a large enough effect in the signal ratio in the repeat runs, not every such curve was filed as active; inconclusive = weak or mixed curves, or effect the other way; inactive = no such curve, though single readings can be large or run the other way; the % refers to the signal ratio; note: potency is the fitted concentration of half-maximal effect); conditions: ER-beta-UAS-bla HEK293T, beta-lactamase FRET ratio, 16 h; activity, negative = inhibition: at 92.4 µM (top of the series) unless noted
How it was run: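 Antagonist mode: compounds added to beta-lactamase reporter HEK293T ER-beta-UAS cells stimulated with E2 (1nM final), 16 hr at 37C. LiveBLAzer B/G FRET substrate, 2 hours room temperature, fluorescence read-out.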

[17] = molecular target: Glucocorticoid receptor (Homo sapiens) (UniProt P04150); test: qHTS assay to identify small molecule antagonists of the glucocorticoid receptor (GR) signaling pathway (AID 720692; active = well fitted inhibition curve with a large enough effect in the signal ratio in the repeat runs, not every such curve was filed as active; inconclusive = weak or mixed curves, or effect the other way; inactive = no such curve, though single readings can be large or run the other way; the % refers to the signal ratio; note: potency is the fitted concentration of half-maximal effect); conditions: GR-bla HeLa, beta-lactamase FRET ratio, dexamethasone-stimulated, 18 h
How it was run: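 Fluorescence from cleaved LiveBLAzer B/G FRET substrate reports GRE-driven beta-lactamase in HeLa cells; compounds are tested against 5 nM dexamethasone (final) over 18 h at 37 C, substrate incubation 2 h at room temperature.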

[18] = qHTS assay to identify small molecule agonists of the progesterone receptor (PR) signaling pathway - cell viability counter screen (AID 1346799; calls by dose curve; note: nearly all actives have a fitted effect of over 45% in size; note: potency is the fitted concentration of half-maximal effect)
How it was run: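 Multiplexed viability read: CellTiter-Glo luminescence, 30 min RT, following LiveBLAzer FRET measurement on PR-UAS-bla HEK293T cells exposed to compounds 16 hr.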

[19] = qHTS assay for identifying genotoxic compounds that show differential cytotoxicity against isogenic chicken DT40 cell lines with known DNA damage response pathways - Rev3 mutant cell line (AID 743014); conditions: chicken DT40 Rev3-/- viability, CellTiter-Glo, 40 h; activity, negative = cytotoxicity: at 68.4 µM (top of the series) unless noted; note: potency is the fitted concentration of half-maximal effect; nearly all actives have a fitted effect of over 55% in size
[20] = activity change, negative = inhibition: at 61 µM (top of the series) unless noted
[21] = activity change, negative = inhibition: at 58.5 µM (top of the series) unless noted
Tags give direction and shape of the fitted curve or compound fluorescence and quenching.

Chain of UniProt P37231 (P37231 whole entry, looked up): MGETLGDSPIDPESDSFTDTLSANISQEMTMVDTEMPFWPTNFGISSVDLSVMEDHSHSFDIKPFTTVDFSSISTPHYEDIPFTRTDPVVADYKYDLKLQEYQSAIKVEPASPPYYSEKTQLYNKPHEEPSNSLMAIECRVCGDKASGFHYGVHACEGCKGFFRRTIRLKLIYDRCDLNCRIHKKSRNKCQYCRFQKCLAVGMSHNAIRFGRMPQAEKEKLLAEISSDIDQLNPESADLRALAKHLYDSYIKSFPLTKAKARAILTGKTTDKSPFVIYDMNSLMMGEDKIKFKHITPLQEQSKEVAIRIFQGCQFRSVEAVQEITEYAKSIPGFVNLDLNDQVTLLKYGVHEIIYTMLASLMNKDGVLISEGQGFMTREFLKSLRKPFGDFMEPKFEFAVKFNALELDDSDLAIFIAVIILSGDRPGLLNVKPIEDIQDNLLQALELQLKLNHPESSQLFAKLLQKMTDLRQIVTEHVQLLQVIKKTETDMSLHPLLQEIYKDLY
Chain of UniProt P05177 (P05177 whole entry, looked up): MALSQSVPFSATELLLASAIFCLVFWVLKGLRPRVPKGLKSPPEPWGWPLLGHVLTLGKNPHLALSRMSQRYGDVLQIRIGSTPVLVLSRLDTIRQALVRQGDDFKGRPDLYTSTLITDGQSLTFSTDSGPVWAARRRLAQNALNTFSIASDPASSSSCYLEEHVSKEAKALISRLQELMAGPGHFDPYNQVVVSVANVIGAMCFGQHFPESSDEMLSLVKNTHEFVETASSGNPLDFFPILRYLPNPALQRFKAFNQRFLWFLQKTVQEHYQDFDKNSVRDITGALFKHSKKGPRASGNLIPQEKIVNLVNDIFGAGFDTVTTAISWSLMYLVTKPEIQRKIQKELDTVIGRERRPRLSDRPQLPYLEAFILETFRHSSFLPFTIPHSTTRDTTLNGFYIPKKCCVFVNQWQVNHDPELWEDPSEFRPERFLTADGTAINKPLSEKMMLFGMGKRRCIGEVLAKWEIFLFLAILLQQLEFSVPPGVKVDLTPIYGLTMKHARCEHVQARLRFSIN
Chain of UniProt P06401 (P06401 whole entry, looked up): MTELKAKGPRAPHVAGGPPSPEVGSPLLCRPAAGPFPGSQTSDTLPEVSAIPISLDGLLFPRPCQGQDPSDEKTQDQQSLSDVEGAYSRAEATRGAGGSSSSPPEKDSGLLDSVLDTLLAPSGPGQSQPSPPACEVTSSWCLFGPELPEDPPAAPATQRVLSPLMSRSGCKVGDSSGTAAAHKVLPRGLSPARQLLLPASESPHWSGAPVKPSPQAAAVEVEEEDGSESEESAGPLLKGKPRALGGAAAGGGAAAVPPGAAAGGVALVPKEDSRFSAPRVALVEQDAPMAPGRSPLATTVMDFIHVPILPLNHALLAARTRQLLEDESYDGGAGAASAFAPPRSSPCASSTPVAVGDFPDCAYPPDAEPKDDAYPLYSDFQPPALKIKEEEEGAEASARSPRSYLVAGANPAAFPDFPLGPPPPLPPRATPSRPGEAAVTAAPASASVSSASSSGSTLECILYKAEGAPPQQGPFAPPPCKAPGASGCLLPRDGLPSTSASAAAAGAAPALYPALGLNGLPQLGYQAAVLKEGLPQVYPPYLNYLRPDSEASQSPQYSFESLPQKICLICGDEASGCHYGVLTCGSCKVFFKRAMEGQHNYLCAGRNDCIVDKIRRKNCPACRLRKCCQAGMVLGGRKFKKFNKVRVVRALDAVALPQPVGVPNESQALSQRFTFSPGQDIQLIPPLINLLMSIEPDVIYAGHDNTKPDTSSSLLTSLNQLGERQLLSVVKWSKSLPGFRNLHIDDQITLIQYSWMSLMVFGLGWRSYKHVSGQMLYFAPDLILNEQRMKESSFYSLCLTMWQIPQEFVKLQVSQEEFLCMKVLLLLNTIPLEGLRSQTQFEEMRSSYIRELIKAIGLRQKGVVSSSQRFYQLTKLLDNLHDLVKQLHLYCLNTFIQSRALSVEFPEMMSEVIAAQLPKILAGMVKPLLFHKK
Chain of UniProt P33261 (P33261 whole entry, looked up): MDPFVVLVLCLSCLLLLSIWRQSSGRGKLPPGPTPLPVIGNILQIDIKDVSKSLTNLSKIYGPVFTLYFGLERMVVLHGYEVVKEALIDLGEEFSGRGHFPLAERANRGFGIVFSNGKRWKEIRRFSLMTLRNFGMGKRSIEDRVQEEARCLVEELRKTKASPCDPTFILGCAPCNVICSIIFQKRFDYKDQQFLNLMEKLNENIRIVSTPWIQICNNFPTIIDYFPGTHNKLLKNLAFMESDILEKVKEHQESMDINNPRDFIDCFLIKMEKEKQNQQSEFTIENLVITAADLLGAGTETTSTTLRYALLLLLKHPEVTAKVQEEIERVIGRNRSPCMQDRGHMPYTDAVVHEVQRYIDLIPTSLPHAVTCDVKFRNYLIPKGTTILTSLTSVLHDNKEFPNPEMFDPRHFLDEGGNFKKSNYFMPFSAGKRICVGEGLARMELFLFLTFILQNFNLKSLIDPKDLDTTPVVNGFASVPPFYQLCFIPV
Chain of UniProt P04150 (P04150 whole entry, looked up): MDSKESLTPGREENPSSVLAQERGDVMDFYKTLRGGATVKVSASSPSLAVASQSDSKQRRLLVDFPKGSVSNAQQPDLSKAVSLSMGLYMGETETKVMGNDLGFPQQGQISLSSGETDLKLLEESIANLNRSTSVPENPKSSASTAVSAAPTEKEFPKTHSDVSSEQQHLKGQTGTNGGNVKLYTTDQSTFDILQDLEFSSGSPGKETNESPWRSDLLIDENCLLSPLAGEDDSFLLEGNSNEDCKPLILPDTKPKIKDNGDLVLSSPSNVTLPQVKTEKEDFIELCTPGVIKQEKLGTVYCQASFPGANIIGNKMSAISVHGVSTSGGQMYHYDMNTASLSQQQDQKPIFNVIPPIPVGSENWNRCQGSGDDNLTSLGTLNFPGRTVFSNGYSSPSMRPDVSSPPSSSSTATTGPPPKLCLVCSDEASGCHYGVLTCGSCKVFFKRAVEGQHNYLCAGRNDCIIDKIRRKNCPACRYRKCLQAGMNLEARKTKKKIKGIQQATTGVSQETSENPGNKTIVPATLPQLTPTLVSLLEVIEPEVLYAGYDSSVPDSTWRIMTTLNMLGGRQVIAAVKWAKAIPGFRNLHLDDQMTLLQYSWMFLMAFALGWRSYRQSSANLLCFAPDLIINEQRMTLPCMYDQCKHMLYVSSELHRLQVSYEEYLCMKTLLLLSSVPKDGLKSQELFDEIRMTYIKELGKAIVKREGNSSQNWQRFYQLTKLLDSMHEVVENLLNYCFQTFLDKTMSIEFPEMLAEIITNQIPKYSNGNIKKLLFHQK
Chain of UniProt Q92731 (Q92731 whole entry, looked up): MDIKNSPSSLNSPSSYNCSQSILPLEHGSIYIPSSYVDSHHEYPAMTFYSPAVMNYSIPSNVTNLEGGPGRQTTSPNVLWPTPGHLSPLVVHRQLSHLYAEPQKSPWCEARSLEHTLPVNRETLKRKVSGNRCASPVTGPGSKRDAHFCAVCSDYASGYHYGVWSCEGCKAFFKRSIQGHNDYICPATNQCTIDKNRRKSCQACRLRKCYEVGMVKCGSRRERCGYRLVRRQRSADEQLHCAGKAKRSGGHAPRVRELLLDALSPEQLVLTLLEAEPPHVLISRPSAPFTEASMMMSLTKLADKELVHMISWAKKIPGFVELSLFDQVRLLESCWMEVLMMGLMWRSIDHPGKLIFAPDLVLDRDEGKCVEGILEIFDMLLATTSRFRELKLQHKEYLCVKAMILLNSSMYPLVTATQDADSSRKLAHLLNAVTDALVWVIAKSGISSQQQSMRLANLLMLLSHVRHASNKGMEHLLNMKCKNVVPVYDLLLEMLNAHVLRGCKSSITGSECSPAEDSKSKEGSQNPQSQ
Chain of UniProt P11473 (P11473 whole entry, looked up): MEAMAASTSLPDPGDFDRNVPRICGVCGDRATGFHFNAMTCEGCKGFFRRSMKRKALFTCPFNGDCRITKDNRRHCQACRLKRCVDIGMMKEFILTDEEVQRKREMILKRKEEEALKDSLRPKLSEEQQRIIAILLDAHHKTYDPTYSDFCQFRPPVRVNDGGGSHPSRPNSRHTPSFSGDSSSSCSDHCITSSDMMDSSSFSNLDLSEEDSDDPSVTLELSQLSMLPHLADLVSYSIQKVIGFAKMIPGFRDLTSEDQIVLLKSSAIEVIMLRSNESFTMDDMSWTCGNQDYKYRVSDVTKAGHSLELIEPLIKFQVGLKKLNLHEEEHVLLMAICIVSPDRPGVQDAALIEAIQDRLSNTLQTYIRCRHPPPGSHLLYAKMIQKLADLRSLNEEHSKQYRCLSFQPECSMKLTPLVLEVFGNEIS
Chain of UniProt P03372 (P03372 whole entry, looked up): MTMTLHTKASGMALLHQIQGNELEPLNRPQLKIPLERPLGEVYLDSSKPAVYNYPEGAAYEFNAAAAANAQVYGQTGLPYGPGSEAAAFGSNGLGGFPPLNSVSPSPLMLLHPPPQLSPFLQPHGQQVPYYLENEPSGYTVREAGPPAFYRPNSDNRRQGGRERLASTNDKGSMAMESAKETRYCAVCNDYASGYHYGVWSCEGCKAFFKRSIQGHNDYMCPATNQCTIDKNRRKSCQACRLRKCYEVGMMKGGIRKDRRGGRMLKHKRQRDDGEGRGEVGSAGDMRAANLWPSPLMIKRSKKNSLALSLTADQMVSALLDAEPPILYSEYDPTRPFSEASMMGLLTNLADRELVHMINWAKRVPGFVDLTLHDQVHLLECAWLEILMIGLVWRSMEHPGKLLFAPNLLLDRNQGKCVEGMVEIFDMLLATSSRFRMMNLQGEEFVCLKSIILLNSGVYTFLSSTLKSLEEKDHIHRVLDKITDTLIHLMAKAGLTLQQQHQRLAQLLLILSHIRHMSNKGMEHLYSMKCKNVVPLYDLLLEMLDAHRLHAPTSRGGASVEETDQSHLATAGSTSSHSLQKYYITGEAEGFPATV

Q: With O=C(O)c1ccc(Cl)cc1Cl as the compound, how does the Potency [1] read?
A: inconclusive: 78.8 µM [falling, single point]

Q: And the Potency [2]?
A: inconclusive: 39.5 µM [rising, partial curve]

Q: And the activation [3]?
A: inconclusive: 0.251% [phenotype inactive] [at 95 µM]

Q: And the ratio activity, negative = inhibition [4]?
A: inconclusive: 7.4% [at 81.1 µM]

Q: What about the Potency [5] of the same compound?
A: inactive

Q: And the Potency [6]?
A: inactive

Q: And the Potency [7]?
A: inconclusive: 70.2 µM [activator, partial curve, poor fit]

Q: For CC1=C(O)C(=O)CO1, which Potency [8] is on record?
A: inconclusive: 0.0863 µM

Q: And the Potency [9]?
A: inconclusive: 38.6 µM [rising, partial curve, poor fit]

Q: What about the Potency [4] of the same compound?
A: inactive

Q: And the activation [5]?
A: inconclusive: 25.7%

Q: What about the Potency [6] of the same compound?
A: inactive

Q: And the Potency ([10]; activity change, negative = inhibition: at 92.4 µM (top of the series) unless noted)?
A: inactive

Q: And the Potency [11]?
A: inconclusive: 50.2 µM [inhibitor, partial curve, poor fit]

Q: What about the Potency [12] of the same compound?
A: inconclusive: 39.9 µM [inhibitor, partial curve]

Q: With C=C(C)[C@H]1CC=C(C)CC1 as the compound, how does the Potency [1] read?
A: inactive

Q: And the Potency [5]?
A: inactive

Q: And the Potency [13]?
A: inconclusive: 1.22 µM [inhibitor, full curve, poor fit]

Q: What about the Potency [14] of the same compound?
A: inconclusive: 63.3 µM [inhibitor, partial curve, poor fit]

Q: What does the source list for CN=C(NC#N)NCCSCc1nc[nH]c1C?
A: Potency [9]: inactive and inconclusive: 68 µM [cytotoxic, single point]; ratio activity, negative = inhibition [4]: inconclusive: 5.16%; Potency [15, 20]: inconclusive: 24.3 µM [activator]; Potency [7]: inactive; Potency [16]: inactive; Potency [14]: inconclusive: 39.6 µM [inhibitor, partial curve]

Q: Which results are given for C[C@]12CC[C@@H]3c4ccc(O)cc4CC[C@H]3[C@@H]1C[C@@H](O)[C@@H]2O?
A: activation [1]: inconclusive: 1.59%; Potency [17, 21]: active: 12 µM and active: 38.9 µM; Potency [4]: inactive; activation [5]: inconclusive: -18.2%; activity change, negative = inhibition [15, 20]: inconclusive: 14.4%; activity change, negative = inhibition ([15]; at 61 µM (top of the series)): inactive: -11%; Potency [6]: inconclusive: 15.4 µM [inhibitor, partial curve] and inconclusive: 1.19 µM [inhibitor, full curve]; Potency [13]: active: 13.7 µM and active: 5.96 µM; Potency [16]: inconclusive: 12.2 nM [activator, full curve] and inconclusive: 23.7 µM [activator, partial curve]; Potency [18]: inactive

Q: Which results are given for CCOC(=O)c1ccc(N)cc1?
A: Potency [1]: inactive; Potency [8]: inactive; activity change, negative = inhibition [17, 21]: inconclusive: 16.1% [at 27 µM]; activity change, negative = inhibition ([17]; at 58.5 µM (top of the series)): inactive: 2.02%; Potency [19]: inconclusive: 8.04 µM [cytotoxic, partial curve, poor fit]; ratio activity, negative = inhibition [4]: inconclusive: -18.5%; activation [5]: inconclusive: 21.5% and inconclusive: 26.4%; activity change, negative = inhibition [15, 20]: inconclusive: -0.721%; Potency [7]: inconclusive: 54.5 µM [activator, partial curve, poor fit]; activation [7]: inconclusive: 7.39% [phenotype inactive]; activity change, negative = inhibition ([10]; at 42.5 µM (top of the series)): inconclusive: -25.8%; activity change, negative = inhibition ([10]; at 92.4 µM (top of the series)): inconclusive: -24.8%; Potency [18]: inconclusive: 0.0686 µM [cytotoxic, full curve, poor fit]; Potency [11]: active: 39.9 µM and inactive; Potency [14]: active: 12.6 µM and inconclusive: 11.5 µM [inhibitor, full curve, poor fit]
